Assay results from the supplement of paper PMC8728848.
The other results are listed elsewhere or left out.

Assays:
Assay in all cases: glycan array binding signal (z-score within array); higher = stronger binding
Conditions in all cases: glycan notation: IUPAC condensed, linker removed
[1] = target: Fuc(a1-2)[Gal(a1-3)]Gal(b1-4)GlcNAc(b1-2)Man(a1-3)[Fuc(a1-2)[Gal(a1-3)]Gal(b1-4)GlcNAc(b1-2)Man(a1-6)]Man(b1-4)GlcNAc(b1-4)GlcNAc
Procedure, shortened: (§1)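 Negative Z-scores can be read as non-binding. The Z-score is calculated within each array and then averaged across arrays of one protein sequence at different concentrations or buffers and across linkers. Arrays, 3228 in all, were curated from the Consortium for Functional Glycomics database and kept only where the protein sequence was available.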

[2] = target: Fuc(a1-2)[Gal(a1-3)]Gal(b1-4)GlcNAc(b1-2)Man(a1-3)[Fuc(a1-2)[Gal(a1-3)]Gal(b1-4)GlcNAc(b1-2)Man(a1-6)]Man(b1-4)GlcNAc(b1-4)[Fuc(a1-6)]GlcNAc
Procedure, shortened: as §1

[3] = target: Fuc(a1-2)[Gal(a1-3)]Gal(b1-4)GlcNAc(b1-3)GalNAc
Procedure, shortened: as §1

[4] = target: Fuc(a1-2)[Gal(a1-3)]Gal(b1-4)GlcNAc(b1-3)[Fuc(a1-2)[Gal(a1-3)]Gal(b1-4)GlcNAc(b1-6)]GalNAc
Procedure, shortened: as §1

[5] = target: Fuc(a1-2)[Gal(a1-3)]Gal(b1-4)GlcNAc(b1-6)GalNAc
Procedure, shortened: as §1

[6] = target: Fuc(a1-2)[Gal(a1-3)]Gal(b1-4)[Fuc(a1-3)]Glc
Procedure, shortened: as §1

[7] = target: Fuc(a1-2)[Gal(a1-3)]Gal(b1-4)[Fuc(a1-3)]GlcNAc
Procedure, shortened: as §1

[8] = target: Fuc(a1-2)[Gal(a1-3)]Gal(b1-4)[Fuc(a1-3)]GlcNAc(b1-3)GalNAc
Procedure, shortened: as §1

[9] = target: Fuc(a1-2)[Gal(a1-4)]Gal(b1-4)GlcNAc
Procedure, shortened: as §1

[10] = target: Fuc(a1-2)[GalNAc(a1-3)]Gal
Procedure, shortened: as §1

[11] = target: Fuc(a1-2)[GalNAc(a1-3)]Gal(b1-3)GalNAc(a1-3)[Fuc(a1-2)]Gal(b1-4)GlcNAc
Procedure, shortened: as §1

[12] = target: Fuc(a1-2)[GalNAc(a1-3)]Gal(b1-3)GalNAc(b1-3)Gal(a1-4)Gal(b1-4)Glc
Procedure, shortened: as §1

[13] = target: Fuc(a1-2)[GalNAc(a1-3)]Gal(b1-3)GlcNAc
Procedure, shortened: as §1

[14] = target: Fuc(a1-2)[GalNAc(a1-3)]Gal(b1-3)GlcNAc(b1-2)Man(a1-3)[Fuc(a1-2)[GalNAc(a1-3)]Gal(b1-3)GlcNAc(b1-2)Man(a1-6)]Man(b1-4)GlcNAc(b1-4)GlcNAc
Procedure, shortened: as §1

[15] = target: Fuc(a1-2)[GalNAc(a1-3)]Gal(b1-3)GlcNAc(b1-2)Man(a1-3)[Fuc(a1-2)[GalNAc(a1-3)]Gal(b1-3)GlcNAc(b1-2)Man(a1-6)]Man(b1-4)GlcNAc(b1-4)[Fuc(a1-6)]GlcNAc
Procedure, shortened: as §1

[16] = target: Fuc(a1-2)[GalNAc(a1-3)]Gal(b1-3)GlcNAc(b1-3)GalNAc
Procedure, shortened: as §1

[17] = target: Fuc(a1-2)[GalNAc(a1-3)]Gal(b1-3)GlcNAc(b1-6)GalNAc
Procedure, shortened: as §1

[18] = target: Fuc(a1-2)[GalNAc(a1-3)]Gal(b1-4)Glc
Procedure, shortened: as §1

[19] = target: Fuc(a1-2)[GalNAc(a1-3)]Gal(b1-4)GlcNAc
Procedure, shortened: as §1

[20] = target: Fuc(a1-2)[GalNAc(a1-3)]Gal(b1-4)GlcNAc(b1-2)Man
Procedure, shortened: as §1

[21] = target: Fuc(a1-2)[GalNAc(a1-3)]Gal(b1-4)GlcNAc(b1-2)Man(a1-3)[Fuc(a1-2)[GalNAc(a1-3)]Gal(b1-4)GlcNAc(b1-2)Man(a1-6)]Man(b1-4)GlcNAc(b1-4)GlcNAc
Procedure, shortened: as §1

[22] = target: Fuc(a1-2)[GalNAc(a1-3)]Gal(b1-4)GlcNAc(b1-2)Man(a1-3)[Fuc(a1-2)[GalNAc(a1-3)]Gal(b1-4)GlcNAc(b1-2)Man(a1-6)]Man(b1-4)GlcNAc(b1-4)[Fuc(a1-6)]GlcNAc
Procedure, shortened: as §1

[23] = target: Fuc(a1-2)[GalNAc(a1-3)]Gal(b1-4)GlcNAc(b1-3)Gal(b1-4)GlcNAc
Procedure, shortened: as §1

[24] = target: Fuc(a1-2)[GalNAc(a1-3)]Gal(b1-4)GlcNAc(b1-3)Gal(b1-4)GlcNAc(b1-3)Gal(b1-4)GlcNAc
Procedure, shortened: as §1

[25] = target: Fuc(a1-2)[GalNAc(a1-3)]Gal(b1-4)GlcNAc(b1-3)GalNAc
Procedure, shortened: as §1

[26] = target: Fuc(a1-2)[GalNAc(a1-3)]Gal(b1-4)GlcNAc(b1-3)[Fuc(a1-2)[GalNAc(a1-3)]Gal(b1-4)GlcNAc(b1-6)]GalNAc
Procedure, shortened: as §1

[27] = target: Fuc(a1-2)[GalNAc(a1-3)]Gal(b1-4)GlcNAc(b1-6)GalNAc
Procedure, shortened: as §1

[28] = target: Fuc(a1-2)[GalNAc(a1-3)]Gal(b1-4)[Fuc(a1-3)]GlcNAc
Procedure, shortened: as §1

[29] = target: Fuc(a1-2)[GalNAc(a1-3)]Gal(b1-4)[Fuc(a1-3)]GlcNAc(b1-3)GalNAc
Procedure, shortened: as §1

[30] = target: Fuc(a1-2)[GalNAc(a1-4)]Gal(b1-4)GlcNAc
Procedure, shortened: as §1

[31] = target: Fuc(a1-2)[GalNAc(b1-3)]Gal
Procedure, shortened: as §1

[32] = target: Fuc(a1-3)GlcNAc
Procedure, shortened: as §1

[33] = target: Fuc(a1-3)[Gal(b1-4)]Glc6S
Procedure, shortened: as §1

[34] = target: Fuc(a1-3)[Gal(b1-4)]GlcNAc
Procedure, shortened: as §1

[35] = target: Fuc(a1-3)[Gal(b1-4)]GlcNAc(b1-2)Man
Procedure, shortened: as §1

[36] = target: Fuc(a1-3)[Gal(b1-4)]GlcNAc(b1-2)Man(a1-3)[Fuc(a1-3)[Gal(b1-4)]GlcNAc(b1-2)Man(a1-6)]Man(b1-4)GlcNAc(b1-4)GlcNAc
Procedure, shortened: as §1

[37] = target: Fuc(a1-3)[Gal(b1-4)]GlcNAc(b1-2)Man(a1-3)[Fuc(a1-3)[Gal(b1-4)]GlcNAc(b1-2)Man(a1-6)]Man(b1-4)GlcNAc(b1-4)[Fuc(a1-6)]GlcNAc
Procedure, shortened: as §1

B1: CC1G-11630 (Coprinopsis cinerea), A8P462 (protein)
chain: MTTEAKIKLKAVVYWELVFDYDNSSNTGEITQSYTVKISQTSTRSTFASEVSTTTIDTLTKNNQEVDVGASYGAISANVSASWEHSEEVNNMLEKTTQTSTEDTYTVETEETRSYTIGPGGMLSLFQKHFSGPGMHVAFDVFTTDLELAKERTEIDIDVDVEAIRFVREIRVVYTDIMSEAPGDHVREINGKNPDINYGFNGKFVWLVPEQTRKTAQALTNVEFVSQAESDDRYWDLAAGAGGSNRYLIPVYDTNNKDKIYELALWRSDSYITHDKVKAAGWSGTTGDINSGRGGTYLNLVWKTRHAY
[1]
  glycan array binding signal (z-score): -0.214
[2]
  glycan array binding signal (z-score): 0.476
[3]
  glycan array binding signal (z-score): 0.833
[4]
  glycan array binding signal (z-score): 0.561
[5]
  glycan array binding signal (z-score): 1.23
[6]
  glycan array binding signal (z-score): -0.641
[7]
  glycan array binding signal (z-score): -0.317
[8]
  glycan array binding signal (z-score): 0.212
[9]
  glycan array binding signal (z-score): -0.763
[10]
  glycan array binding signal (z-score): -0.6
[11]
  glycan array binding signal (z-score): -0.196
[12]
  glycan array binding signal (z-score): -0.53
[13]
  glycan array binding signal (z-score): -0.752
[14]
  glycan array binding signal (z-score): -0.708
[15]
  glycan array binding signal (z-score): -0.174
[16]
  glycan array binding signal (z-score): 0.144
[17]
  glycan array binding signal (z-score): -0.233
[18]
  glycan array binding signal (z-score): -0.143
[19]
  glycan array binding signal (z-score): -0.601
[20]
  glycan array binding signal (z-score): -0.807
[21]
  glycan array binding signal (z-score): -0.357
[22]
  glycan array binding signal (z-score): 1
[23]
  glycan array binding signal (z-score): -0.726
[24]
  glycan array binding signal (z-score): -0.061
[25]
  glycan array binding signal (z-score): -0.266
[26]
  glycan array binding signal (z-score): 0.164
[27]
  glycan array binding signal (z-score): -0.842
[28]
  glycan array binding signal (z-score): -0.42
[29]
  glycan array binding signal (z-score): 0.132
[30]
  glycan array binding signal (z-score): -0.63
[31]
  glycan array binding signal (z-score): -0.342
[32]
  glycan array binding signal (z-score): -0.254
[33]
  glycan array binding signal (z-score): 0.657
[34]
  glycan array binding signal (z-score): -0.213
[35]
  glycan array binding signal (z-score): 0.267
[36]
  glycan array binding signal (z-score): -0.255
[37]
  glycan array binding signal (z-score): -0.199
